# Results: the supplement of paper PMC11417369
# ± gives the standard deviation of the averaged measurements. The list shows a part of the results.
# Tested on: PfAP2-G AP2 domain (GST-tagged)
# Test: gcPBM binding intensity (ln(normalized median fluorescence intensity)); higher = stronger DNA binding
# Procedure, shortened: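 Plasmodium falciparum DNA-binding domains carrying a GST tag were expressed in E. coli and applied for 1 h, at about 25 μg on average, to an Agilent 4 × 180k array. The array held primer-extended double-stranded 36-bp intergenic genomic probes together with negative controls, and binding took place in 1× PBS with 1% milk, 0.2 mg/ml BSA, 0.5% salmon testes DNA and 0.03% Triton X-100. An Alexa488 anti-GST antibody detected bound protein, and the array was scanned at 488 nm. Binding intensity is taken as the highest Masliner-normalised natural-log median intensity across replicate spots of either probe orientation.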
row,Sequence,gcPBM binding intensity (ln)
1,ATTAAAGGAAGCAAAACATGCAACAGCAATATTGCA [TGCATGCA_site452],9.665 ± 0.007
2,TGTTATTATAACATTTTTTTCAAAATAGCTTTAGAA [CACACA_negctrl_site266],9.88 ± 0.26
3,ATAATACCCAAGCACACACACACACCGATATATATA [CACACA_site8344],10.4 ± 0.28
4,AATTTATAAGAATAAAGTACTAAAGATACAACTTTA [XGTACX_site7153],10.9 ± 0.63
5,AAAAAAAAAAAAAACACACAGAACAATATATAAATA [CACACA_site982],9.82 ± 0.15
6,AAAAAAAAATACAAAATAGCAATAAATACACAAACG [GTGCAC_negctrl_site707],10.2 ± 0.19
7,AAAAAAAAAAAAAAAACATGCACAAATTATAAGTGA [TGCATGCA_site378],10.2 ± 0.2
8,ACTACATAATACTATTCACACATTTTTTTTTTTTTT [CACACA_site5794],9.9 ± 0.18
9,ATATATTGGAGCACAACACACACAAGTATATATATG [CACACA_site8435],10.5 ± 0.26
10,TTTATTGAATAAAATGCACACGCATGCGTTATTTAT [CACACA_site9154],9.985 ± 0.035
11,TATATGTTATATTTAACACACATATAAGGTACATAT [CACACA_site612],11.2 ± 0.85
12,TTCTCATAATTAAATAGTACATATTTTAATAATCAC [XGTACX_site6116],11 ± 0.74
13,TACATGAATATATAAAGAAAAAAAAAAAAACACACA [XGTACX_negctrl_site350],10.1 ± 0.16
14,TATAAATTATATATTTGTACGTATATCACATATATA [XGTACX_site7053],11.3 ± 0.84
15,TTAAAAAAAATTATTTGTACTTAAAAATTTTATATT [XGTACX_site8751],11.2 ± 0.86
16,AGAAAAAAAAAACACACACACACACCGTCAATATAA [CACACA_site7895],9.945 ± 0.007
17,TTTTTAAACCATGTTGTGCACATTTTTTTTGGATTT,10.4 ± 0.23
18,TGTTAAAGAGAAAGTACTACACATATTATGTGTTTT [XGTACX_site1435],11 ± 0.66
19,TTTTATAAACAGAGGGGTACGGGAAAAAAAAAAAAA [XGTACX_site1480],11.1 ± 0.94
20,AAAATTATATATTATAGTACATAAAATTTTGATATA [XGTACX_site994],10.9 ± 0.56
21,TATTAAAAATGTTAAGTGCAAAAATAAAAATTGTGG [GTGCAC_site9854],10.2 ± 0.17
22,TTAGTTATTATAATTTGTACACAAATGGTAAAGTAT [XGTACX_site2343],11.2 ± 0.71

row,Sequence,gcPBM binding intensity (ln)
1,TTTGTACCGGCATTTTTTTTTTCTTTTTTTTTCCAA [XGTACX_negctrl_site323],10.9 ± 0.6
2,AAAAAAAAAAAAATCTCACACATAAAGAGATTATGA [CACACA_site4408],9.615 ± 0.092
3,TTGAAAGAAAATAAAATAAAATAAAATAAAATAAAA [CACACA_negctrl_site859],9.45 ± 0.014
4,ATATATATGTATTTATGTACATATTATTTTTCTTAA [XGTACX_site8169],11.2 ± 0.72
5,ACATATGAAAAATATGCATGCAAATATTATTTAACA [TGCATGCA_site802],9.73 ± 0.16
6,TATGTATGTTAGTGTGCACACATAAATATTATATAT [CACACA_site9121],10.5 ± 0.36
7,TTTTTAAAATTTTTAAAAATATTATGTTAAATATAT [CACACA_negctrl_site415],9.61 ± 0.085
8,TTTTATTTCAATCCACAAGGGATAAAATAAAGTTTT [CACACA_negctrl_site699],9.795 ± 0.049
9,GGATGTATTTATATGTGTATGTGTTTGGAAATATGT [XGTACX_negctrl_site99],10.11 ± 0.057
10,AATAAATAAAAATATATATATATAATATACATGTGT [TGCATGCA_negctrl_site369],9.81 ± 0.11
11,GATAATGAATGATGCACACTAAAAATATTCTACAAC [CACACA_site3622],10.185 ± 0.007
12,CAAATTGGGAAATTTTGTACATATAATAAGGATACC [XGTACX_site7728],10.9 ± 0.39
13,CCGTATATTTTATATAGTACTCATCATATATTTTTA [XGTACX_site5560],10.9 ± 0.56
14,AAACTCTCTTATATTAAACACACATATATATATGTA [CACACA_site8865],9.96 ± 0.28
15,GTTGGTAGGATGTATGGTACACGTAGTATTTTTCTT [XGTACX_site2],11.1 ± 0.62
16,AATAAAAATAAAATTGTATATTTTAAATGAAAATAA [CACACA_negctrl_site898],9.51 ± 0.35
17,AAAAACTTTTCAAGTAGTACCATATCTACAATAGTA [XGTACX_site8927],11.1 ± 0.76
18,AAACAAAAGATATATACACACTAAACATAAAAAAAA [CACACA_site6161],9.885 ± 0.007
19,CCTTTATTAAATAAATGTACATATTTTTGTGTTCTT [XGTACX_site2052],11.3 ± 0.72
20,TATTTTACAATAACAATACACACTATAATATATATA [CACACA_site1391],9.925 ± 0.092
21,TGTGTTCAGTATTGCACACACACAACCAAATAAAAA [CACACA_site379],10.4 ± 0.28
22,ATTCACATATTATCTTTACACACTATATATAAGTTT [CACACA_site8901],9.98 ± 0.099

row,Sequence,gcPBM binding intensity (ln)
1,ATAGATAAATTTACGGGTACTAAAATGGAATATGAA [XGTACX_site8637],11.3 ± 0.8
2,AATATATATAAATAAACACACACAAATATAATAAAA [CACACA_site9176],10.2 ± 0.2
3,GAAATGAACAAGTGGGTGCGTATTAATTACATATTA,10.4 ± 0.18
4,CATCAAAATGCTACATGTACATATATATAATATATT [XGTACX_site5207],11.2 ± 0.69
5,CATTTTCATTTTAAGGTGCATTAATATTTATTTTAA [GTGCAC_site9437],10.2 ± 0.36
6,TATATATATACATATTGTACATATTACATGCTATTA [XGTACX_site1184],10.9 ± 0.64
7,TCATTTTAAATATGTGTGCACGTTATAATTTACACA,10.4 ± 0.13
8,TTTTTAATTTTTTTTAAACACACACCGTACATTCAA [CACACA_site7925],10.8 ± 0.61
9,TACAACTTAATATGTACACACAAATATATATATATA [CACACA_site5138],11.4 ± 0.96
10,ATCAAAATTGTCATTACACACCTTTATTTTTAGAAT [CACACA_site1813],9.965 ± 0.092
11,ATTATTCTATATGAAACATGCATACATTTGTATTTT [TGCATGCA_site823],9.8 ± 0.11
12,ATATATGTAAATGAATGTACATTATTTTATATATTA [XGTACX_site8460],10.8 ± 0.52
13,GAAATACATTTTAAAAAATAAGTAATTATAAAATAA [TGCATGCA_negctrl_site303],9.57 ± 0.11
14,GATACCTATAGACACACACACATACCTATATACATA [CACACA_site7586],10.2 ± 0.2
15,ATTCATCCAATAATGTGAATTATCATGATAAACTTA [TGCATGCA_negctrl_site406],9.69
16,TTTATAAATAAACACACACACATGTGAACATAAAAA [CACACA_site5110],10.4 ± 0.2
17,ATATATTTATTATTAACATGCAATCATTATATATAA [TGCATGCA_site404],9.67 ± 0.014
18,TTAATATGAGAATAATGTACAAGAAAATATTACATA [XGTACX_site6609],10.9 ± 0.51
19,TTGGATTTTTCCTATGAACACACGGGGTTACAATTA [CACACA_site449],10.1 ± 0.14
20,TCCAATAATTTATAAAAAAAAAAAGGGAAAATGTAT [TGCATGCA_negctrl_site492],9.62 ± 0.11
21,AAAATAATAAAAAACTGTACGAATTAAAAATTAACA [XGTACX_site8454],11.1 ± 0.8
22,AAACATTTTCATTTGACACACATCATATATTTATAT [CACACA_site1794],10.2 ± 0.12

row,Sequence,gcPBM binding intensity (ln)
1,AATCTATCAAAGTGTACATGCAATAAAAAAAAAAAA [TGCATGCA_site103],11.2 ± 1.1
2,AAAAAATTATTATGAACACACATTTATTATATTCAT [CACACA_site1566],9.805 ± 0.049
3,TTCAAGATTTATTATACACACATATTAAAATATATA [CACACA_site4479],9.76 ± 0.11
4,TATATATATAAATACAGTACATATATAATATTTTGA [XGTACX_site637],10.7 ± 0.51
5,TAACTTAATTTTAATGCACACAATTTATATATATAT [CACACA_site6022],10.1 ± 0.18
6,AAAAATATATATATATATATATATATATTATTTTTT [TGCATGCA_negctrl_site378],9.46 ± 0.11
7,ATATGTACTATACGCACACACACTCACATATATATA [CACACA_site3239],11.4 ± 0.81
8,AATTATATGAAATAAACACACATATGCAATATTGCA [CACACA_site6988],9.875 ± 0.035
9,CTTTCATTTCTATCTACACACATATTTTTTCCAAGT [CACACA_site2972],10.18 ± 0.078
10,TTAATGTACAGACACCCACACACAAACAAATATATA [CACACA_site8888],11 ± 0.62
11,AAAAGAAAAAAAAGTACACACATGTATATTAAGCGT [CACACA_site5402],11.5 ± 0.83
12,GCGTGCGTGTACTTAACACACATAATATGTATTTAT [CACACA_site1247],11.3 ± 0.99
13,TTTTTTTTTCCCCCATGTACATAAATAAGTATATCT [XGTACX_site6965],11.5 ± 1
14,ATTATATATATCAGGTGTACGTAAAAAAAATGGACG [XGTACX_site1028],11.9 ± 0.81
15,TATAAAAATATATTTACACACTATAAATATCGAAAG [CACACA_site6896],9.96 ± 0.18
16,TAATTTATAAATATAATATTTATGTATATGATGTTT [CACACA_negctrl_site464],9.795 ± 0.078
17,GAGGTCTTTTTTAATGTGCACATATATATATATATA,10.7 ± 0.51
18,TTTTTTTATTAATGTAGTACAATATAATGTTATATT [XGTACX_site2295],11.6 ± 0.88
19,TTTTTTTTTTTTTTTACACACTCCAATAAAAAAGAA [CACACA_site2119],10.1 ± 0.51
20,TTTTTTCTCAAAAAAAAAACCTATGGTTATTAAGAT [XGTACX_negctrl_site534],9.9 ± 0.24
21,GTATATATATATAAAAGTACATGTTATGAAAAAAAA [XGTACX_site5410],11.3 ± 0.81
22,TATATATAGAAACACACACACATATATATATATATA [CACACA_site773],10.1 ± 0.22
